# In PubChem BioAssay AID504339 (National Center for Advancing Translational Sciences (NCATS), 2011):
# Several values for one entry are separate records, joined by “and”; a condition that tells them apart may be missing. Identical values can stand only once. The whole screen tested about 390,000 compounds, of which about 17,000 (4.4%) were called active. This list was built around the results that the source calls inconclusive (neither active nor inactive); the mix of calls is not that of the screen. The call rests on the fitted dose curve; in most records, active means well fitted inhibition curve with a large enough effect; inconclusive means small, poorly fitted or top-dose-only effect; inactive means no such curve, though single readings can be large or run the other way. Where the call is inconclusive, the potency comes from a doubtful curve fit.
# Biological target: Lysine-specific demethylase 4A (Homo sapiens) (UniProt O75164)
# Assay: qHTS Assay for Inhibitors of JMJD2A-Tudor Domain; further: nearly all actives have a fitted effect of over 50% in size
# Conditions: AlphaScreen JMJD2A-Tudor / H3K4me3 peptide binding; activity change, negative = inhibition: at 114 µM (top of the series)
# On the % scale 0 is the no-effect control and ±100 the full control effect; potency means the concentration at half of the fitted maximal effect; tags describe the fitted curve by direction and shape.
# UniProt O75164, sequence (O75164 whole entry, looked up, the tested form may be a part): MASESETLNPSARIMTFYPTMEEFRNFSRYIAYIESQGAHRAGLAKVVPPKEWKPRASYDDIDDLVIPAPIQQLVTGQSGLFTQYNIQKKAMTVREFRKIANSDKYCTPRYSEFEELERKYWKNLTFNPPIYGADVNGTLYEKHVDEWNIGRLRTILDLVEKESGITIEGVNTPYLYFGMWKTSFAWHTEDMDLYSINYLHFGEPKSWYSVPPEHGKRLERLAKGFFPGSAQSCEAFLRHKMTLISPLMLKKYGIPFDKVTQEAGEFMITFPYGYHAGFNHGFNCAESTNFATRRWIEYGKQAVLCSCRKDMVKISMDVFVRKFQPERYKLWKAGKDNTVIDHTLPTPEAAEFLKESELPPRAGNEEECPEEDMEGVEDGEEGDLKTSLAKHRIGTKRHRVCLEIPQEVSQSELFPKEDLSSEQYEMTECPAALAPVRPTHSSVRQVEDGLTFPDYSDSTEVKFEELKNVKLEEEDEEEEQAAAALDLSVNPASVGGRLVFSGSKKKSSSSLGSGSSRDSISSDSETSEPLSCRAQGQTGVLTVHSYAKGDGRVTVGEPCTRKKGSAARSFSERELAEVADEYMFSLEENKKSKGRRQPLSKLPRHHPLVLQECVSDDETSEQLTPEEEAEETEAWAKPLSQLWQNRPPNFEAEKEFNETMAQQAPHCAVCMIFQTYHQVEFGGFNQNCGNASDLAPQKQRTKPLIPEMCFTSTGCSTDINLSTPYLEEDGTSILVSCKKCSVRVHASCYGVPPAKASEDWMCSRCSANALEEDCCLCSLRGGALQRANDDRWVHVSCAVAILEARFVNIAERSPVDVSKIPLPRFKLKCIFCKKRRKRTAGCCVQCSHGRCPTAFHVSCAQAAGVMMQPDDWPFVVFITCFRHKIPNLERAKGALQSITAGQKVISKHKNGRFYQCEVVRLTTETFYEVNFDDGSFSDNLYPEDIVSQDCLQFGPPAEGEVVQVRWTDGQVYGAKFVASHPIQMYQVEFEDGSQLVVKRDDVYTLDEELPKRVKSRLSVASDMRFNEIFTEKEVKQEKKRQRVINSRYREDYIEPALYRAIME
Structure (SMILES),"activity change, negative = inhibition",Potency
COc1cccc(NC(=O)c2sc3nc(N4CCOCC4)c4c(c3c2N)CCCC4)c1,inactive: -9.73%,–
S=c1[nH]nc(CN2CCCCC2)n1Cc1ccccc1,–,active: 12.6 µM
Cc1ccc(OCC(O)CNCc2ccccc2)cc1C (stereo not drawn),inactive: -18.3%,–
COc1ccc2c(c1)CCc1c-2nc2ccccc2c1N1CCOCC1,–,"inconclusive: 89.1 µM [inhibitor, single point]"
CCc1nc(SCC(=O)Nc2nccs2)c2oc3ccccc3c2n1,–,"inconclusive: 79.4 µM [inhibitor, partial curve]"
CCn1c(SCC(=O)NC(=O)NCc2ccco2)nc2sc(C)c(C)c2c1=O,inactive: -5.21%,–
Cc1[nH]c2c(C)cccc2c1CCNC(=O)c1cc2ccccc2oc1=O,inactive: -3.36%,–
O=c1oc2ccc3ccccc3c2cc1-c1nnc(Nc2cc(C(F)(F)F)ccc2Cl)s1,inactive: 0.333%,–
Cc1cccc(NC(=O)c2cccc(C(=O)Nc3cccc(C)c3)c2)c1,–,"inconclusive: 31.6 µM [inhibitor, partial curve]"
COc1ccc(N)cc1-n1c(C)ccc1C,–,"inconclusive: 44.7 µM [inhibitor, partial curve]"
CCOc1ccccc1NC(=O)Cc1cccs1,–,"inconclusive: 56.2 µM [inhibitor, partial curve]"
Cc1oc2cc(Br)c(O)c(Br)c2c1-c1ccccc1,inactive: -2.37%,–
COC(=O)CN1C(=S)N(c2ccc(Cl)cc2)C(=O)C1CC(=O)Nc1ccc(F)cc1 (stereo not drawn),inactive: -23.2%,–
CC(=O)N/C(=C\c1ccccc1)C(=O)N1CCOCC1,inactive: -28.2%,–
COc1ccc(N(C)S(=O)(=O)c2c(C)[nH]c(=O)[nH]c2=O)cc1,–,"inconclusive: 89.1 µM [inhibitor, single point]"
Cc1cccc(N2N=C(C(=O)N3Cc4ccccc4CC3C(N)=O)CCC2=O)c1 (stereo not drawn),inactive: -11.4%,–
Cc1ccc(NC(=S)NNC(=O)CSc2nnc(-c3ccc(Cl)cc3)n2C2CCCCC2)cc1,–,"inconclusive: 56.2 µM [inhibitor, partial curve]"
COc1ccc(/C=N/NC(=O)c2cc(O)c(O)c(O)c2)cc1Cn1cc([N+](=O)[O-])cn1,–,active: 10 µM
CC(C)c1cnc2c(c1SCC(=O)Nc1cccc([N+](=O)[O-])c1)c(=O)n(C)c(=O)n2C,–,"inconclusive: 56.2 µM [inhibitor, partial curve]"
c1ccc(CSc2ncnc3c2oc2ccccc23)cc1,inactive: 121%,–
CC(=O)n1cc([C@@H]2C=C(C(=O)N3CCN(Cc4ccc5c(c4)OCO5)CC3)O[C@H](OCCCCO)C2)c2ccccc21,–,"inconclusive: 50.1 µM [inhibitor, partial curve]"
C=CCc1cc(OC)ccc1OCC(O)CN1CCN(c2ccc(OC)cc2)CC1 (stereo not drawn),–,active: 44.7 µM
Cc1c2cccn2cc[n+]1C,–,active: 44.7 µM
Cc1ccc(OCC(=O)Nc2ccccc2C(=O)OCc2cc(=O)n3c(C)csc3n2)cc1,inactive: -12.9%,–

Structure (SMILES),"activity change, negative = inhibition",Potency
CCOC(=O)c1noc2nc(C)n(CC(=O)Nc3ccc(Br)cc3C)c(=O)c12,–,"inconclusive: 89.1 µM [inhibitor, single point]"
CCOc1ccc(CN2CCN(S(=O)(=O)c3ccc(NC(C)=O)cc3)CC2)cc1OC,–,active: 22.4 µM
Cc1ccc(-c2nc3cnccn3c2Nc2ccc(C(C)C)cc2)o1,–,active: 44.7 µM
Nc1ccccc1Nc1cccc(C(F)(F)F)c1,–,"inconclusive: 17.8 µM [inhibitor, full curve]"
Cc1cc(Nc2cccc(C(F)(F)F)c2)nc2ccc(NC(=O)c3cncc(Br)c3)cc12,inactive: -3.3%,–
Cc1ccc(CN(C(=O)c2ccc([N+](=O)[O-])cc2)c2ccccn2)cc1,–,"inconclusive: 79.4 µM [inhibitor, partial curve]"
COC(=O)c1ccc(C2/C(=C(/O)c3ccc(OC)cc3)C(=O)C(=O)N2c2cc(C)on2)cc1 (stereo not drawn),inactive: -24.9%,–
COc1ccc(-c2ccc(C(c3c(C)[nH][nH]c3=O)c3c(C)[nH][nH]c3=O)o2)c([N+](=O)[O-])c1,–,"inconclusive: 39.8 µM [inhibitor, partial curve]"
COc1cccc(-c2nnc(N)o2)c1,inactive: -5.8%,–
CCN(CC)S(=O)(=O)c1cccc(-c2n[nH]c(=S)n2C)c1,–,active: 17.8 µM
COc1ccc(/C=C/C(=O)NC(=S)NNC(=O)c2cc(OC)c(OC)c(OC)c2)cc1OC,–,"inconclusive: 79.4 µM [inhibitor, partial curve]"
O=C(NCC1CCCN1S(=O)(=O)c1cccs1)c1cccc(F)c1 (stereo not drawn),inactive: -15.9%,–
CCOC(=O)C1=C(C)N=C2SC(C(=O)OC)=CC(=O)N2C1c1ccc(OC)cc1 (stereo not drawn),–,"inconclusive: 7.94 µM [inhibitor, full curve, poor fit]"
Cc1cc(NC(=O)CSc2nc(N)c(NC(=O)c3ccco3)c(=O)[nH]2)no1,–,"inconclusive: 25.1 µM [inhibitor, single point]"
COc1cccc(NC(=O)CN(C)CC(=O)Nc2ccc(Cl)cc2[N+](=O)[O-])c1,–,"inconclusive: 56.2 µM [inhibitor, partial curve]"
CCOc1ccccc1/C=N/Nc1cc(C)nc2ccc(C)cc12,–,"inconclusive: 44.7 µM [inhibitor, partial curve]"
S=C(NCCCc1cnc[nH]1)NCCCN(CCc1ccccc1)c1ccc(Br)cn1,–,active: 50.1 µM and active: 56.2 µM
O=C(NCCCN1CCCC1=O)C1CCN(S(=O)(=O)c2c(Cl)cccc2Cl)CC1,inactive: -6.9%,–
CC(=O)c1ccc(NC(=O)CN2C(=O)CCc3cc(S(=O)(=O)N4CCC(C)CC4)ccc32)cc1,–,"inconclusive: 56.2 µM [inhibitor, partial curve]"
CCOc1ccc(N=Nc2c(C)[nH]n(-c3ccccc3)c2=O)cc1,–,"inconclusive: 12.6 µM [inhibitor, partial curve]"
CC1CCCCC1NS(=O)(=O)c1ccc(-n2cnnn2)cc1 (stereo not drawn),–,"inconclusive: 89.1 µM [inhibitor, single point]"
COc1cc(-c2nc(=S)[nH][nH]2)cc(OC)c1OC,–,active: 3.55 µM
c1ccc2c(N3CCCCC3)nc(N3CCCCC3)nc2c1,inactive: 30.1%,–
CSc1ccccc1OCc1cc(C(=O)N(C)Cc2ccc3nsnc3c2)no1,inactive: -16.7%,–
